# Source: the supplement of paper PMC10037445
# Whole data set: some 2,900 compounds, median “IRF Lucia reporter activity, fold change vs agonist alone” near 0.9, cut for the highest 2% near 2.8. This is one part of the list.
# Key:
# RAW-Dual [1] = test: IRF Lucia reporter activity, fold change vs agonist alone; cytotoxicity flag (confluency mask): not cytotoxic; higher = enhanced IRF activity
# In short: (§1)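 Reporter activity is given as fold change relative to agonist-alone wells. To measure it, 50 nL of library stock was pin-tooled onto RAW-Dual macrophages (50,000 cells/well, DMEM, 384-well plates), a PRR agonist followed 1 h later, and cells stayed at 37 °C, 5% CO2. Twenty hours on, supernatant was assayed for IRF (QuantiLuc luminescence) and NF-κB (QuantiBlue, 620 nm absorbance), and wells under 70% of agonist-control IncuCyte confluency in both mask sets were marked cytotoxic.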
# RAW-Dual [2] = test: IRF Lucia reporter activity, fold change vs agonist alone; higher = enhanced IRF activity; conditions: library stock concentration (final ~1000-fold dilution): 10 mM, agonist: MPLA (TLR4) […]
# In short: as §1
# RAW-Dual [3] = test: IRF Lucia reporter activity, fold change vs agonist alone; cytotoxicity flag (confluency mask): cytotoxic (confluency <70% of control); higher = enhanced IRF activity
# In short: as §1
# [4] = agonist: 3'3'-cGAMP (STING) 10 ug/mL
# [5] = cytotoxicity flag (confluency mask): not cytotoxic
# [6] = cytotoxicity flag (confluency mask): cytotoxic (confluency <70% of control)
compound,measurement,setting,value
CCC(C)Nc1cc(C(=O)NC2CC3CCC(C2)N3c2ccc(C(=O)C3CC3)cn2)c(C)cc1C(N)=O (configuration not stated) (library stock concentration (final ~1000-fold dilution): 10 mM),IRF Lucia reporter activity,RAW-Dual [1]; [4],0.482
same,IRF Lucia reporter activity,RAW-Dual [1]; agonist: LPS (TLR4) 0.1 ug/mL,0.924
CCC(C)Nc1cc(C(=O)NC2CC3CCC(C2)N3c2ccc(C(=O)C3CC3)cn2)c(C)cc1C(N)=O (configuration not stated),IRF Lucia reporter activity,RAW-Dual [2]; [5],0.838
COc1ccc(-c2coc3cc(O[C@@H]4O[C@H](CO)[C@@H](O)[C@H](O)[C@H]4O)ccc3c2=O)cc1O (library stock concentration (final ~1000-fold dilution): 10 mM),IRF Lucia reporter activity,RAW-Dual [1]; [4],0.018
same,IRF Lucia reporter activity,RAW-Dual [1]; agonist: LPS (TLR4) 0.1 ug/mL,0.0222
CNC(=O)c1ccc2cc(C3(O)CCn4cncc43)ccc2c1 (configuration not stated),IRF Lucia reporter activity,RAW-Dual [2]; [5],0.973
CNC(=O)c1ccc2cc(C3(O)CCn4cncc43)ccc2c1 (configuration not stated) (library stock concentration (final ~1000-fold dilution): 10 mM),IRF Lucia reporter activity,RAW-Dual [1]; [4],1.05
same,IRF Lucia reporter activity,RAW-Dual [1]; agonist: LPS (TLR4) 0.1 ug/mL,1.04
Cc1nc2ccc(NC(=O)Nc3ccnc4cccnc34)cc2o1 (library stock concentration (final ~1000-fold dilution): 10 mM),IRF Lucia reporter activity,RAW-Dual [1]; [4],0.172
same,IRF Lucia reporter activity,RAW-Dual [1]; agonist: LPS (TLR4) 0.1 ug/mL,0.65
Cc1nc2ccc(NC(=O)Nc3ccnc4cccnc34)cc2o1,IRF Lucia reporter activity,RAW-Dual [2]; [5],0.93
Oc1nc(-c2ccc(C(F)(F)F)cc2)nc2c1CSCC2 (library stock concentration (final ~1000-fold dilution): 10 mM),IRF Lucia reporter activity,RAW-Dual [1]; [4],0.908
same,IRF Lucia reporter activity,RAW-Dual [1]; agonist: LPS (TLR4) 0.1 ug/mL,1.1
Oc1nc(-c2ccc(C(F)(F)F)cc2)nc2c1CSCC2,IRF Lucia reporter activity,RAW-Dual [2]; [5],0.892
NC(=O)N1c2ccccc2CC(=O)c2ccccc21,IRF Lucia reporter activity,RAW-Dual [2]; [5],1.14
NC(=O)N1c2ccccc2CC(=O)c2ccccc21 (library stock concentration (final ~1000-fold dilution): 10 mM),IRF Lucia reporter activity,RAW-Dual [1]; [4],1.08
same,IRF Lucia reporter activity,RAW-Dual [1]; agonist: LPS (TLR4) 0.1 ug/mL,0.934
Cc1ccc(-c2ccc(C)cn2)nc1,IRF Lucia reporter activity,RAW-Dual [2]; [5],1.1
Cc1ccc(-c2ccc(C)cn2)nc1 (library stock concentration (final ~1000-fold dilution): 10 mM),IRF Lucia reporter activity,RAW-Dual [1]; [4],0.792
same,IRF Lucia reporter activity,RAW-Dual [1]; agonist: LPS (TLR4) 0.1 ug/mL,0.907
CC(NCCC(c1ccccc1)c1ccccc1)c1ccccc1.Cl (configuration not stated),IRF Lucia reporter activity,RAW-Dual [2]; [6],1.34
CC(NCCC(c1ccccc1)c1ccccc1)c1ccccc1.Cl (configuration not stated) (library stock concentration (final ~1000-fold dilution): 10 mM),IRF Lucia reporter activity,RAW-Dual [3]; [4],0.498
same,IRF Lucia reporter activity,RAW-Dual [3]; agonist: LPS (TLR4) 0.1 ug/mL,1.49
CCCCCOc1ccc(-c2ccc(-c3ccc(C(=O)NC4CC(O)C(O)NC(=O)C5C(O)C(C)CN5C(=O)C(C(C)O)NC(=O)C(C(O)C(O)c5ccc(O)cc5)NC(=O)C5CC(O)CN5C(=O)C(C(C)O)NC4=O)cc3)cc2)cc1 (configuration not stated) (library stock concentration (final ~1000-fold dilution): 10 mM),IRF Lucia reporter activity,RAW-Dual [3]; [4],0.449
same,IRF Lucia reporter activity,RAW-Dual [3]; agonist: LPS (TLR4) 0.1 ug/mL,1.32
CCCCCOc1ccc(-c2ccc(-c3ccc(C(=O)NC4CC(O)C(O)NC(=O)C5C(O)C(C)CN5C(=O)C(C(C)O)NC(=O)C(C(O)C(O)c5ccc(O)cc5)NC(=O)C5CC(O)CN5C(=O)C(C(C)O)NC4=O)cc3)cc2)cc1 (configuration not stated),IRF Lucia reporter activity,RAW-Dual [2]; [6],0.732
COc1cc2ccc(=O)oc2cc1O (library stock concentration (final ~1000-fold dilution): 10 mM),IRF Lucia reporter activity,RAW-Dual [1]; [4],0.959
same,IRF Lucia reporter activity,RAW-Dual [1]; agonist: LPS (TLR4) 0.1 ug/mL,1.17
COc1cc2ccc(=O)oc2cc1O,IRF Lucia reporter activity,RAW-Dual [2]; [5],0.923
CCNc1nc(Nc2cc(F)c(C(=O)N3CCOCC3)cc2OC)ncc1C(F)(F)F,IRF Lucia reporter activity,RAW-Dual [2]; [5],0.824
CCNc1nc(Nc2cc(F)c(C(=O)N3CCOCC3)cc2OC)ncc1C(F)(F)F (library stock concentration (final ~1000-fold dilution): 10 mM),IRF Lucia reporter activity,RAW-Dual [1]; [4],1.21
same,IRF Lucia reporter activity,RAW-Dual [1]; agonist: LPS (TLR4) 0.1 ug/mL,0.644
CCCCCCOc1cc(C)c(O)c(C)c1C (library stock concentration (final ~1000-fold dilution): 10 mM),IRF Lucia reporter activity,RAW-Dual [3]; [4],0.0152
same,IRF Lucia reporter activity,RAW-Dual [3]; agonist: LPS (TLR4) 0.1 ug/mL,0.0158
FC(F)(F)Oc1ccc(-c2ccc3nnc(C(F)(F)F)n3c2)cc1 (library stock concentration (final ~1000-fold dilution): 10 mM),IRF Lucia reporter activity,RAW-Dual [1]; [4],0.973
same,IRF Lucia reporter activity,RAW-Dual [1]; agonist: LPS (TLR4) 0.1 ug/mL,0.723
FC(F)(F)Oc1ccc(-c2ccc3nnc(C(F)(F)F)n3c2)cc1,IRF Lucia reporter activity,RAW-Dual [2]; [5],1.07
CC1CCN(C(=O)CC#N)CC1N(C)c1ncnc2[nH]ccc12 (configuration not stated),IRF Lucia reporter activity,RAW-Dual [2]; [5],0.532
CC1CCN(C(=O)CC#N)CC1N(C)c1ncnc2[nH]ccc12 (configuration not stated) (library stock concentration (final ~1000-fold dilution): 10 mM),IRF Lucia reporter activity,RAW-Dual [1]; [4],0.238
same,IRF Lucia reporter activity,RAW-Dual [1]; agonist: LPS (TLR4) 0.1 ug/mL,0.409
O=C(O)CCCC[C@@H]1CCSS1 (library stock concentration (final ~1000-fold dilution): 10 mM),IRF Lucia reporter activity,RAW-Dual [1]; [4],0.945
same,IRF Lucia reporter activity,RAW-Dual [1]; agonist: LPS (TLR4) 0.1 ug/mL,1.12
CC1C(=O)OC2CC34C5CC(C(C)(C)C)C36C(OC(=O)C6O)OC4(C(=O)O5)C21O (configuration not stated) (library stock concentration (final ~1000-fold dilution): 10 mM),IRF Lucia reporter activity,RAW-Dual [1]; [4],1.02
same,IRF Lucia reporter activity,RAW-Dual [1]; agonist: LPS (TLR4) 0.1 ug/mL,0.964
CC1C(=O)OC2CC34C5CC(C(C)(C)C)C36C(OC(=O)C6O)OC4(C(=O)O5)C21O (configuration not stated),IRF Lucia reporter activity,RAW-Dual [2]; [5],0.876
COc1ccc2c(c1)c(CC(=O)OCC(=O)O)c(C)n2C(=O)c1ccc(Cl)cc1,IRF Lucia reporter activity,RAW-Dual [2]; [5],0.986
COc1ccc2c(c1)c(CC(=O)OCC(=O)O)c(C)n2C(=O)c1ccc(Cl)cc1 (library stock concentration (final ~1000-fold dilution): 10 mM),IRF Lucia reporter activity,RAW-Dual [1]; [4],1.05
same,IRF Lucia reporter activity,RAW-Dual [1]; agonist: LPS (TLR4) 0.1 ug/mL,0.987
Cc1[nH]nc(C(F)(F)F)c1Cc1sc2c(c1C(=O)N1CC(C)(O)CO1)c(=O)n(C)c(=O)n2C(C)C (configuration not stated) (library stock concentration (final ~1000-fold dilution): 10 mM),IRF Lucia reporter activity,RAW-Dual [1]; [4],0.955
same,IRF Lucia reporter activity,RAW-Dual [1]; agonist: LPS (TLR4) 0.1 ug/mL,0.637
Cc1[nH]nc(C(F)(F)F)c1Cc1sc2c(c1C(=O)N1CC(C)(O)CO1)c(=O)n(C)c(=O)n2C(C)C (configuration not stated),IRF Lucia reporter activity,RAW-Dual [2]; [5],0.755
CCCNC(C)C(=O)Nc1ccccc1C.Cl (configuration not stated) (library stock concentration (final ~1000-fold dilution): 10 mM),IRF Lucia reporter activity,RAW-Dual [1]; [4],1.05
same,IRF Lucia reporter activity,RAW-Dual [1]; agonist: LPS (TLR4) 0.1 ug/mL,1.43
CCCNC(C)C(=O)Nc1ccccc1C.Cl (configuration not stated),IRF Lucia reporter activity,RAW-Dual [2]; [5],1.01
NC(=O)C(CCC(F)(F)F)N(Cc1ccc(-c2ncon2)cc1F)S(=O)(=O)c1ccc(Cl)cc1 (configuration not stated) (library stock concentration (final ~1000-fold dilution): 10 mM),IRF Lucia reporter activity,RAW-Dual [1]; [4],0.94
same,IRF Lucia reporter activity,RAW-Dual [1]; agonist: LPS (TLR4) 0.1 ug/mL,1.56
NC(=O)C(CCC(F)(F)F)N(Cc1ccc(-c2ncon2)cc1F)S(=O)(=O)c1ccc(Cl)cc1 (configuration not stated),IRF Lucia reporter activity,RAW-Dual [2]; [5],1.3
